The list shows a part of the results. At the low end of the ranking the order means little.
Biological target: SIX1 homeodomain (reference allele) (UniProt Q15475)
Experiment: universal protein binding microarray
Settings: Universal all-10-mer PBM (8x60K, AMADID 030236), 300 nM GST-tagged protein, Alexa Fluor 488 anti-GST; buffer, salt, pH and temperature not stated; high values mean tight binding; most listed sequences are background and not binding sites; double strand, one strand shown

Sequence | binding signal
ACTCACGA | 0.0685 E-score
CATGTAAC | -0.146 E-score
AATTCAAA | -0.191 E-score
CACTTGGC | -0.122 E-score
CGTCGTCA | -0.0824 E-score
CTTGACTC | -0.279 E-score
GCCTGTCA | -0.0937 E-score
AGCTACCC | 0.00907 E-score
AAAACCCA | 0.0053 E-score
CAACTAAC | -0.13 E-score
ACATTTCT | -0.101 E-score
GAATGATC | 0.306 E-score
GACGCCAA | -0.165 E-score
ATAGGTCG | 0.0987 E-score
GGTGTAGA | 0.317 E-score
GGAGCATA | 0.213 E-score
ACTGCTTC | -0.266 E-score
CCCAAAGG | -0.0824 E-score
ATTAGTTG | 0.09 E-score
AGCACACG | -0.254 E-score
AGAGGGAG | -0.128 E-score
AGCCGTAC | -0.00524 E-score
CTAATCAC | 0.106 E-score
TCCATCAA | 0.168 E-score
ACCCTTTC | -0.0808 E-score

Sequence | binding signal
GTTTGCCA | -0.237 E-score
AACGTGTG | -0.23 E-score
CTCTTTGA | -0.199 E-score
AAATTTGC | -0.286 E-score
AGGCCGAC | -0.258 E-score
CTTGTGGA | -0.0761 E-score
AAGGGCGG | -0.185 E-score
AGACAACC | -0.0652 E-score
CGAAAAGC | -0.261 E-score
CATATAGA | 0.183 E-score
AAGCTATT | -0.0788 E-score
CGCCGATC | 0.258 E-score
CGGCGCGA | 0.124 E-score
GAAGTGTC | 0.083 E-score
ACGAATAG | -0.11 E-score
ATTGGATA | 0.297 E-score
AGACAGAC | -0.0699 E-score
AGCCATTA | 0.0688 E-score
ACAACGTC | -0.328 E-score
AGTAGATC | 0.321 E-score
CCCATAAC | -0.0014 E-score
CGACGTCC | -0.212 E-score
GAATCGGC | -0.0808 E-score
CGCTTAGA | -0.0774 E-score
AAGGCCAA | -0.213 E-score

Sequence | binding signal
ATCAAAGC | 0.214 E-score
CTGAGGAA | -0.177 E-score
ATTGCGTG | -0.00942 E-score
AACCACTA | -0.155 E-score
AGAGTCAA | -0.234 E-score
AAGGGTCA | -0.0563 E-score
AAGCCCTC | -0.182 E-score
GGCTGCCA | -0.28 E-score
GCACAGAA | -0.219 E-score
CTCCACGA | -0.133 E-score
AGATGGAT | 0.328 E-score
GTGCCTTA | -0.24 E-score
GCAACACC | 0.25 E-score
TGCTTACA | -0.0502 E-score
GGATTCCA | 0.201 E-score
ATAAGTTA | -0.0906 E-score
AAAACTAT | 0.0642 E-score
AGTGTTTC | -0.189 E-score
AAAGGCAC | -0.257 E-score
CTGTGGGC | -0.254 E-score
CAGGCGTA | -0.000125 E-score
CTGCATAC | 0.0871 E-score
ACGGCAGC | -0.0537 E-score
AAGCGACA | -0.0712 E-score
AGGGCACC | -0.172 E-score

Sequence | binding signal
ATACTTCA | 0.166 E-score
CCTAACCC | -0.0302 E-score
AGGTCCTC | -0.182 E-score
GAGGTGGA | 0.0141 E-score
GACGGAAC | -0.139 E-score
CCGACGTA | -0.059 E-score
ATCTTCTC | 0.132 E-score
AGCTCTTG | -0.0312 E-score
GTGGTCTA | -0.00752 E-score
GCATGTAA | -0.202 E-score
GATGGCAA | -0.109 E-score
CGCCGGGC | -0.0821 E-score
CATACCTA | 0.174 E-score
ACGACGAG | -0.209 E-score
AAACCATG | 0.0829 E-score
AAGTGAAA | -0.156 E-score
CCTGTCGC | -0.00328 E-score
GAACTCCA | -0.308 E-score
CACACGTA | 0.108 E-score
GGAAGTCC | -0.23 E-score
CGCGTAGA | 0.079 E-score
AGTCACTG | -0.282 E-score
ATGAGCCG | 0.206 E-score
CACGAAGA | 0.0108 E-score
TGTAACAA | -0.0896 E-score

Sequence | binding signal
ATCATCAT | 0.291 E-score
ATTGACCA | -0.0208 E-score
ACGACTTA | -0.122 E-score
ACCTCTTG | 0.101 E-score
GCCTCGAA | -0.219 E-score
TACAGTCA | 0.0219 E-score
AGACTCCC | -0.147 E-score
ATTACCCG | 0.135 E-score
TACAGCGA | 0.0268 E-score
CAGTCTTC | -0.258 E-score
ATGGCGTC | -0.0404 E-score
GCAGTCAC | -0.143 E-score
CTACAAGC | -0.246 E-score
CAGACGGA | 0.0786 E-score
CGGAAGCC | 0.0281 E-score
CTGTCCCA | -0.037 E-score
ATGTTACG | -0.3 E-score
AGTTTTGC | -0.0945 E-score
ACGTTGAG | -0.0815 E-score
TATCCTCA | 0.37 E-score
ACACAAGT | -0.00325 E-score
AAGCGAAA | -0.289 E-score
AAACCCAT | 0.169 E-score
CGTCCAAC | -0.0628 E-score
ACCATGAT | 0.269 E-score

Sequence | binding signal
GAAATTAA | -0.193 E-score
TAACTCGA | -0.00801 E-score
ATGCTACG | 0.0501 E-score
ATGTACAA | -0.101 E-score
ACTGCCCG | -0.087 E-score
AGTCGCAA | -0.148 E-score
AAATAATG | -0.0999 E-score
ATTAGTAC | 0.0377 E-score
CTCCTACC | -0.112 E-score
CCAAGACC | -0.11 E-score
TGATGGAA | -0.141 E-score
CGGCACGC | -0.176 E-score
CGACCTCA | -0.088 E-score
ACCTCCCT | -0.173 E-score
ACCTCCCA | 0.00382 E-score
AGGGGCGC | -0.17 E-score
CCAAGATC | 0.22 E-score
TCACATAA | -0.0263 E-score
GGATTGCA | 0.0902 E-score
ATGCAGGA | 0.143 E-score
GTATCGCA | 0.431 E-score
GGAACGCC | -0.0992 E-score
TCCTGGCA | 0.0841 E-score
CAGAGTTC | -0.176 E-score
GGGCGTAA | -0.114 E-score

Sequence | binding signal
ATTTGGCC | -0.195 E-score
CCTTCCCA | 0.0765 E-score
AGAGATCT | 0.198 E-score
CAATACCA | 0.375 E-score
ACCGGGAA | 0.0734 E-score
ACCGCCGG | -0.143 E-score
AACATAGG | -0.141 E-score
TCACTACA | -0.0328 E-score
ACTTAGAC | 0.00364 E-score
ATGGAGTC | 0.0859 E-score
CTTACAAG | -0.0515 E-score
GCAGGCAC | -0.303 E-score
TCAGCCGA | -0.00232 E-score
CTGCCTGA | -0.0906 E-score
TCATCGCA | 0.119 E-score
AAATTGGA | 0.0202 E-score
ATTGGTGC | -0.165 E-score
CTGAATAA | -0.141 E-score
TAACGGGA | -0.0308 E-score
CACCGTGA | 0.178 E-score
CGAAGCAA | -0.115 E-score
GAAACGGA | 0.0348 E-score
